Here are results for 92 compounds from PMC4336329 (PLoS ONE, 2015).

Molecules are shown by their SMILES. Among all 310,000 compounds or so, about 2,200 (0.71%) showed an effect of 50% or more. The effect is printed as a negative number. The list shows a part of the results.

The target in this assay is human ether-à-go-go-related gene (hERG) potassium channel (human, UniProt Q12809). Kind of assay: primary screen, population patch clamp on CHO cells stably expressing hERG.
Sequence of human ether-à-go-go-related gene (hERG) potassium channel (Q12809 whole entry, looked up): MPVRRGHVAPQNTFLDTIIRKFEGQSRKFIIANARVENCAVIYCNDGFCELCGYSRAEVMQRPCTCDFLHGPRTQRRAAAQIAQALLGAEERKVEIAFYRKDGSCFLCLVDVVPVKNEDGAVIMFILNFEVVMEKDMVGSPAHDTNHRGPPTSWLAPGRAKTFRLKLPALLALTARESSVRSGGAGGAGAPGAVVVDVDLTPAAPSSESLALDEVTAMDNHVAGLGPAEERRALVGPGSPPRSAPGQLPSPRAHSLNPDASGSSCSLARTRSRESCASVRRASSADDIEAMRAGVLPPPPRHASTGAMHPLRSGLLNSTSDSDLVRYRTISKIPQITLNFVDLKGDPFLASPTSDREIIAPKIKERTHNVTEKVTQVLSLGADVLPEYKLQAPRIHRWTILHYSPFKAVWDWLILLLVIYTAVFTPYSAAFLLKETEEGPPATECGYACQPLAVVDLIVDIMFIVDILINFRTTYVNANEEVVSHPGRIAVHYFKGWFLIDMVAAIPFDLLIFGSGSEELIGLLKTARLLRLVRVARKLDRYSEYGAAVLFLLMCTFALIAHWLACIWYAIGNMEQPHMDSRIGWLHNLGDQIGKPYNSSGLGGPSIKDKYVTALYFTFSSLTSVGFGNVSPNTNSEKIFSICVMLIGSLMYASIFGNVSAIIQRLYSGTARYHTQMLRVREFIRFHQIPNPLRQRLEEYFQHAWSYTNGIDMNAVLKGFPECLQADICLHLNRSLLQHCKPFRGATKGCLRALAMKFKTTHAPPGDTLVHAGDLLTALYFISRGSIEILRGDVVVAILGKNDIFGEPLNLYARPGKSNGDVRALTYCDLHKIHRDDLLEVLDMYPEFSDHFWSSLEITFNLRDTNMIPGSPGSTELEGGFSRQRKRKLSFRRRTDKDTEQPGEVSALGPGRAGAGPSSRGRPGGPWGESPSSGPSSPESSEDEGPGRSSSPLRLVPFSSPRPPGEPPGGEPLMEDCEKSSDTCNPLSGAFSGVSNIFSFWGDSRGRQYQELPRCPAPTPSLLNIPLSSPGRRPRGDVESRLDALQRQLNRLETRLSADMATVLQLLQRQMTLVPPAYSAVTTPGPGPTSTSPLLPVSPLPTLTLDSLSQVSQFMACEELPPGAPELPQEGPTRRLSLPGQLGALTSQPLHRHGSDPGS
`CC(C)c1ccc(C(CC(=O)c2ccc(Cl)cc2)C(=O)O)cc1` (centres unmarked): the “hERG current change (%, negative = inhibition) at 1uM” value is reported as -0.641%. The value for `CCOC(=O)c1nnn(CC(=O)NC(=O)Nc2cccc(CC)c2)c1C(=O)OCC` was 13.3%; that for `Cn1c(-c2ccc(F)cc2)cnc1SCC(=O)N1CCCc2ccccc21` was -0.573%. Next, `CCOc1ccc(N(CC(=O)NCCc2ccc(F)cc2)S(=O)(=O)c2ccccc2)cc1`: 9.44%; `O=C(NCc1ccco1)c1cc2nc(C3CC3)cc(C(F)(F)F)n2n1`: -0.584%. Next, `CCNCc1nc2cc(Cl)ccc2c(=O)[nH]1.Cl`: 11.9%; `CC1CC(C)CN(S(=O)(=O)c2ccccc2[N+](=O)[O-])C1` (centres unmarked): 0.0889%; `O=C(CC1SC(=Nc2ccccc2)N(CCCCO)C1=O)NCc1ccccc1` (centres unmarked): -8.78%.

Take `c1csc(-c2noc(CN3CCOCC3)n2)c1`: the “hERG current change (%, negative = inhibition) at 1uM” value came to 12.7%. Next, `CC(=O)c1ccc(NC(=O)CCCC(=O)c2ccccc2)cc1`: 14.6%; `CCCNC(=O)COC(=O)c1cc(-c2ccc(OC)cc2)nc2ccccc12`: 4.2%; `C=CCNC(=O)c1ccc(N(CC=C)S(C)(=O)=O)cc1`: -0.84%. Next, `O=C(CN1CCN(S(=O)(=O)c2ccc(Cl)cc2)CC1)NC1CCCC1`: -5.16%; `Cc1ccc(/C=N/NC(=O)c2ccncc2)o1`: 1.99%. `CCn1cc(Br)c(C(=O)Nc2cccc(SC)c2)n1`: the “hERG current change (%, negative = inhibition) at 1uM” value turned out to be 13.6%.

For `CCN1CCN(Cc2ccc(NC(=O)Nc3cccs3)cc2)CC1`, the “hERG current change (%, negative = inhibition) at 1uM” value is reported as 9.85%. Take `CCCCCCCCOC(=O)c1ccc(N)cc1`: the “hERG current change (%, negative = inhibition) at 1uM” value was found to be 13.8%.

Take `C=CCn1c2ccccc2c2nnc(SC(CC)C(=O)Nc3sc4c(c3C#N)CCCC4)nc21` (centres unmarked): the “hERG current change (%, negative = inhibition) at 1uM” value was determined as 12.3%. The value for `Cc1ccc(C)c(S(=O)(=O)NCC(c2ccc3c(c2)OCO3)N2CCOCC2)c1` (centres unmarked) was 2.65%. Regarding `Cc1nc(N2CCOCC2)c(C#N)c(C)c1Br`, the “hERG current change (%, negative = inhibition) at 1uM” value came to 6.16%. Take `Cl.O=C(CCN1CCN(C/C=C/c2ccccc2)CC1)Nc1ccccc1Cl`: the “hERG current change (%, negative = inhibition) at 1uM” value is reported as -47.6%. In the case of `O=C(CN1CCN(c2ccccn2)CC1)Nc1ccc2ccccc2c1`, the “hERG current change (%, negative = inhibition) at 1uM” value came out at 4.71%. As to `O=C(c1cccc(S(=O)(=O)Nc2cccc(C(F)(F)F)c2)c1)N1CCCCC1`, the “hERG current change (%, negative = inhibition) at 1uM” value was found to be 10.3%. In the case of `COc1ccc(-n2nc(C(=O)NCC(=O)N(C)Cc3ccccc3)c3ccccc3c2=O)c(OC)c1`, the “hERG current change (%, negative = inhibition) at 1uM” value is listed as 12.7%.

For the compound `CCOc1ccc(N(CC(=O)Nc2ccc(F)c(F)c2)S(=O)(=O)c2c(C)noc2C)cc1`, the “hERG current change (%, negative = inhibition) at 1uM” value came out at 2.37%.

`CC(C)(C)c1cc(C(=O)O)n[nH]1`: the “hERG current change (%, negative = inhibition) at 1uM” value amounted to 1.94%. As to `COc1ccc(N/C=C2\C(=O)CCc3c2oc2cc(Cl)c(O)c(Cl)c32)cc1`, the “hERG current change (%, negative = inhibition) at 1uM” value was found to be 12%. For the compound `COc1ccc(OCC(=O)Nc2ccccc2C(=O)N2CCOCC2)cc1`, the “hERG current change (%, negative = inhibition) at 1uM” value is given as 7%. The value for `Cc1c(C=N)c(O)n(C)c(=O)c1C#N` was 10.2%. In the case of `CCCCSP1(=S)NCCCO1` (centres unmarked), the “hERG current change (%, negative = inhibition) at 1uM” value is -12.6%. The value for `Cc1ccc(/C=N/NC(=O)Cn2nnc(N)n2)cc1` was 11.8%.

`CCCn1c(SCC(=O)NCc2ccc(OC)cc2)n[nH]c1=O`: the “hERG current change (%, negative = inhibition) at 1uM” value is given as -8.92%. On to `CN(C)CCNc1nc2c(c(=O)[nH]c(=O)n2C)n1CC(O)COc1ccc(Cl)cc1Cl` (centres unmarked), for which the “hERG current change (%, negative = inhibition) at 1uM” value is given as -30.6%. Take `Cc1cccc(COc2ccc(/C=N/NC(=O)c3nnn(-c4nonc4N)c3C)cc2)c1`: the “hERG current change (%, negative = inhibition) at 1uM” value came to 14%. Next, `CCN(CC)CCCNC(=O)C1c2ccccc2C(=O)N1Cc1ccc(C)cc1` (centres unmarked): 1.27%; `Cc1ccc(Nc2nc(=O)[nH]nc2C)cc1`: -6.67%. Next, `COc1ccc(C(=S)N2CCCC2)cc1OC`: 6.13%; `Cn1c(CC(=O)NN)c(Sc2ccccc2)c2ccccc21`: 5.65%; `N#CCCN(Cc1cccs1)C(=O)c1ccc(Cl)cc1`: 6.2%. On to `O=C(CSc1ccc(-c2ccco2)nn1)NCCc1ccccc1`, for which the “hERG current change (%, negative = inhibition) at 1uM” value was -2.33%. Turning to `O=S(=O)(Nc1ccc2c(c1)OCO2)c1ccccc1`, the “hERG current change (%, negative = inhibition) at 1uM” value was -4.87%. The value for `Cc1cccc(C)c1NC(=O)COC(=O)c1cc(-c2cccnc2)nc2ccccc12` was 5.88%; that for `CCC(=O)Nc1ccc(C(=O)COC(=O)Cc2ccsc2)cc1` was -7.02%; that for `Cc1cc(C)cc(NC(=O)C2CCCN2S(=O)(=O)c2ccc3c(c2)C(C)(C)C(=O)N3C)c1` (centres unmarked) was -0.001%. In the case of `Cc1c(C(=O)Nc2c(F)cccc2F)sc2ncnc(N3CCN(c4ccccc4)CC3)c12`, the “hERG current change (%, negative = inhibition) at 1uM” value came out at 4.01%. The value for `CCN(C(=O)CSc1nnc(-c2ccccc2)n1C)C1CCS(=O)(=O)C1` (centres unmarked) was 1.6%; that for `O=C(CC(=O)NCc1ccc(Cl)cc1)NCc1ccc(Cl)cc1` was 8.8%. As for `Cc1ccc(S(=O)(=O)N2CCN(c3ccc(S(=O)(=O)N4CCOCC4)cn3)CC2)cc1`, the “hERG current change (%, negative = inhibition) at 1uM” value was determined as 5.66%. Next, `COc1ccc(C2(C)NC(=O)N(CC(=O)Nc3ccc(Br)c(C)c3)C2=O)cc1OC` (centres unmarked): 12.8%. On to `Cc1noc(C)c1C(=O)OCC(=O)c1c(N)n(CC(C)C)c(=O)n(C)c1=O`, for which the “hERG current change (%, negative = inhibition) at 1uM” value stood at 5.09%. Next, `CN1CCN(c2ccc(CNC(=O)c3ccco3)cc2)CC1`: 15%; `COc1ccc(S(=O)(=O)NCCN2CCOCC2)c2ccccc12`: 10.8%; `CCOC(=O)C1(CCOC)CCN(Cc2cc3ccccc3s2)CC1`: 5.86%. Consider `Cc1ccc(C(=O)Nc2cccc(C(=O)NCc3ccco3)c2)cc1`, for which the “hERG current change (%, negative = inhibition) at 1uM” value amounted to 5.59%. Next, `O=C(NNC(=O)c1cnccc1C(F)(F)F)c1ccc(Cl)cc1`: 12.8%; `S=c1[nH]nc2n1CCCN2`: 13.7%.

With `O=C(Nc1cccnc1)Nc1ccc(Cl)cc1Cl`, the “hERG current change (%, negative = inhibition) at 1uM” value turned out to be 17.5%. On to `CCOC(=O)C1(CCOC)CCN(Cc2ccc3nonc3c2)CC1`, for which the “hERG current change (%, negative = inhibition) at 1uM” value is reported as 11%. The value for `Cc1ccc2[nH]c3nc(NN)nnc3c2c1` was 12.2%; that for `N#C/C(=C(/O)COC(=O)CCc1ccc(S(=O)(=O)N2CCOCC2)cc1)c1nc2ccccc2[nH]1` was 8.46%.

With `CCOC(=O)N1CCN(C(=O)Cc2ccc(C)cc2)CC1`, the “hERG current change (%, negative = inhibition) at 1uM” value worked out at 12.7%. Consider `CCCCc1nc(SCC(=O)Nc2nnc(CCCC)s2)n[nH]1`, for which the “hERG current change (%, negative = inhibition) at 1uM” value is on record as 10.1%. With `Cc1ccc(C(=O)N/C(=C\c2cccs2)C(=O)NCc2cccnc2)cc1`, the “hERG current change (%, negative = inhibition) at 1uM” value was -31.8%. Consider `CC(=O)c1ccc(OCCCC(=O)N(CCC2=CCCCC2)c2c(N)n(Cc3ccccc3)c(=O)[nH]c2=O)cc1`, for which the “hERG current change (%, negative = inhibition) at 1uM” value amounted to 11.5%. Next, `CC(O)CNCCCOc1cccc(Oc2ccccc2)c1.O=C(O)C(=O)O` (centres unmarked): 5.74%; `COc1ccc(C2C(C#N)=C(N)Oc3cc(N)ccc32)cc1OC` (centres unmarked): -0.988%. On to `Cl.c1ccc2c3c(c(CN4CCCCC4)cc2c1)COC3`, for which the “hERG current change (%, negative = inhibition) at 1uM” value came out at 1.98%. Next, `CN(C)[C@H]1N(C(=O)c2ccc(Br)cc2)N=C2c3ccccc3S(=O)(=O)N21`: -14.5%.

As for `COc1ccc(S(=O)(=O)Nc2nnc(C)s2)cc1`, the “hERG current change (%, negative = inhibition) at 1uM” value is given as -4.85%. Take `CC(=O)c1ccccc1-c1csc2ncnc(Sc3nnnn3C)c12`: the “hERG current change (%, negative = inhibition) at 1uM” value stood at 9.95%. For `CC(C(=O)Nc1ccc2c(c1)OCCO2)N1Cc2ccccc2C1=O` (centres unmarked), the “hERG current change (%, negative = inhibition) at 1uM” value is recorded as 8.41%. As for `CC1CC(C)(C)NC(=S)N1CCCC(=O)Nc1ccccc1F` (centres unmarked), the “hERG current change (%, negative = inhibition) at 1uM” value is 9.56%. For `CCCCC(=O)Nc1ccc(NC(=O)c2cc(OC)c(OC)c(OC)c2)cn1`, the “hERG current change (%, negative = inhibition) at 1uM” value is recorded as 13.4%.

On to `Nc1nonc1-n1nnc(C(=O)N/N=C/c2ccccc2F)c1CN1CCOCC1`, for which the “hERG current change (%, negative = inhibition) at 1uM” value is given as 5.6%.

As for `Cc1ccc(C2(C)NC(=O)N(CC(=O)N3c4ccccc4NC(=O)CC3C)C2=O)cc1` (centres unmarked), the “hERG current change (%, negative = inhibition) at 1uM” value was 14.8%.

Take `COc1cc2c(cc1OC)CN(C(=O)Cc1ccccc1)CC2`: the “hERG current change (%, negative = inhibition) at 1uM” value was 2.34%. Turning to `NS(=O)(=O)c1ccc(NC(=O)COC(=O)c2ccc3c(c2)OCCO3)cc1`, the “hERG current change (%, negative = inhibition) at 1uM” value is listed as 13.4%.

Take `O=C(COc1ccccc1C(=O)Nc1ccccc1)c1ccc(Br)cc1`: the “hERG current change (%, negative = inhibition) at 1uM” value worked out at 10.3%. As for `CCn1c2ccccc2c2cc(/C=N/n3cnnc3)ccc21`, the “hERG current change (%, negative = inhibition) at 1uM” value is listed as 13.5%.

Turning to `COc1ccc(Cl)cc1S(=O)(=O)N1CCN=C1c1ccccc1`, the “hERG current change (%, negative = inhibition) at 1uM” value came out at 1.46%. With `CC(=O)NS(=O)(=O)c1ccc(NC(=S)NC(=O)C(C)C)cc1`, the “hERG current change (%, negative = inhibition) at 1uM” value is recorded as 7.38%. For the compound `Cn1c(CCC(=O)OCC(=O)NCC(F)(F)F)nc(=O)c2ccccc21`, the “hERG current change (%, negative = inhibition) at 1uM” value is given as 4%. Next, `CC1=CC(C)(C)N2C(=O)C3(SCC(=O)N3c3ccc(F)cc3)c3cc(C)cc1c32` (centres unmarked): -3.08%; `O=C(CN(C(=O)c1csnn1)c1ccc(F)c(Cl)c1)NC1CCCCC1`: 18.3%; `Cc1ncn(-c2ccccc2)c1-c1ccccc1`: 4.67%.

For `NC1C2CN3CCN(C2)CC1(c1ccccc1)C3` (centres unmarked), the “hERG current change (%, negative = inhibition) at 1uM” value was 13.9%. Regarding `CC(=O)Nc1ccc(C(=O)COC(=O)c2cccs2)c(F)c1`, the “hERG current change (%, negative = inhibition) at 1uM” value came to 1.77%. With `O=C(c1ccccc1)N1CCc2[nH]nc(-c3ccccc3)c2C1`, the “hERG current change (%, negative = inhibition) at 1uM” value was found to be 7.34%. Next, `Cc1cc(NCc2ccccn2)n2ncc(-c3ccccc3)c2n1`: 8.43%; `Cc1cccc(NS(=O)(=O)c2cccc([N+](=O)[O-])c2)n1`: 13.7%. Next, `CN(Cc1nccn1C)C(=O)c1ccc(OC2CCN(CCc3ccccc3)CC2)cc1`: -9.16%; `Cc1cc(C)cc(NC(=O)N2CCc3ccccc3C2)c1`: 16.6%.
